For some of these results: The strong results were mostly taken out for another list; the other results follow. Only a part is listed here, and it is no random draw.
What was measured:
Settings in all cases: concentration: 1 μM,replicates: in singlicate; n = 1
NEK9 = tested on: NEK9
NIK = tested on: T1, NIK
T1 construct: gene MAP3K14

NIM1 = tested on: T2, NIM1
T2 construct: gene MGC42105

NLK = tested on: NLK
OSR1 = tested on: T3, OSR1
T3 construct: gene OXSR1

PAK1 = tested on: PAK1
PAK2 = tested on: PAK2
PAK3 = tested on: PAK3
PAK4 = tested on: PAK4
PAK6 = tested on: PAK6
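Further: KINOMEscan kinase panel screen.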

| Structure (SMILES) | %Inh (NEK9) [%] | %Inh (NIK) [%] | %Inh (NIM1) [%] | %Inh (NLK) [%] | %Inh (OSR1) [%] | %Inh (PAK1) [%] | %Inh (PAK2) [%] | %Inh (PAK3) [%] | %Inh (PAK4) [%] | %Inh (PAK6) [%] |
| --- | --- | --- | --- | --- | --- | --- | --- | --- | --- | --- |
| Cc1cc(C)cc(Oc2nccc(-c3c(-c4ccc(F)cc4)ncn3C3CCNCC3)n2)c1.O=C(O)C(F)(F)F.O=C(O)C(F)(F)F.O=C(O)C(F)(F)F [SB-284851] | 0 | 0 | 4 | 23 | 0 | 0 | 0 | 0 | 4 | 16 |
| O=C1NC(=O)C(c2ccc(Cl)cc2)=C1Nc1cccc(C(=O)O)c1 [SB-360737] | 0 | 0 | 25 | 25 | 7 | 4 | 0 | 11 | 0 | 0 |
| Cc1ccc(C)c(Oc2nccc(-c3c(-c4ccc(F)cc4)ncn3C3CCNCC3)n2)c1.O=C(O)C(F)(F)F.O=C(O)C(F)(F)F.O=C(O)C(F)(F)F [SB-284852] | 0 | 0 | 0 | 49 | 0 | 0 | 2 | 0 | 0 | 2 |
| COc1ccc(C2=C(Nc3cccc(Cl)c3)C(=O)NC2=O)cc1 [SB-326892] | 0 | 32 | 16 | 0 | 0 | 0 | 10 | 22 | 0 | 0 |
| O=C1NC(=O)C(c2ccccc2)=C1Nc1cc(Cl)c(O)c(Cl)c1 [SB-390530] | 0 | 22 | 0 | 0 | 0 | 0 | 11 | 0 | 4 | 0 |
| O=C1NC(=O)c2c1c(-c1ccccc1)cc1[nH]c3ccc(O)cc3c21 | 22 | 24 | 96.1 | 8 | 20 | 1 | 21 | 74 | 12 | 2 |
| CS(=O)(=O)c1ccccc1-c1nc(-c2ccc(F)cc2)c(-c2ccncc2)[nH]1 [SB-213663] | 0 | 0 | 21 | 78 | 0 | 0 | 3 | 33 | 24 | 6 |
| CSc1ccc(NC2=C(c3cccc(Cl)c3)C(=O)NC2=O)cc1 [SB-341528] | 0 | 0 | 0 | 0 | 0 | 0 | 30 | 1 | 0 | 0 |
| O=C1NC(=O)C(c2ccc(Cl)cc2)=C1Nc1ccc(O)c(Cl)c1 [SB-405367] | 0 | 0 | 0 | 0 | 5 | 1 | 15 | 0 | 0 | 5 |
| O=C1NC(=O)C(c2ccc(Cl)cc2)=C1Nc1cccc(O)c1 [SB-333613] | 0 | 26 | 43 | 5 | 22 | 28 | 29 | 2 | 19 | 1 |
| COc1cccc(C2=C(Nc3ccc(SC)cc3)C(=O)NC2=O)c1 [SB-331032] | 0 | 13 | 22 | 11 | 20 | 18 | 35 | 38 | 12 | 0 |
| O=C1NC(=O)C(c2ccc(Cl)cc2)=C1Nc1ccccc1 [SB-317661] | 0 | 36 | 44 | 0 | 10 | 8 | 3 | 0 | 5 | 0 |
| O=C1NC(=O)C(c2ccccc2)=C1Nc1ccc(Cl)c(C(=O)O)c1 [SB-390532] | 36 | 0 | 33 | 29 | 0 | 19 | 21 | 0 | 0 | 0 |
| O=C(O)c1ccc(-c2nc(-c3ccc(F)cc3)c(-c3ccncc3)[nH]2)cc1 [SB-202620] | 0 | 0 | 0 | 88 | 0 | 0 | 24 | 21 | 2 | 0 |
| O=C1NC(=O)C(c2ccccc2Cl)=C1Nc1ccccc1 [SB-376715] | 14 | 0 | 1 | 0 | 3 | 17 | 0 | 0 | 0 | 0 |
| O=C1NC(=O)C(c2ccccc2Cl)=C1Nc1cccc(C(=O)O)c1 [SB-390526] | 26 | 0 | 7 | 0 | 34 | 0 | 0 | 0 | 0 | 0 |

Reference: PMC5540273 (PLoS ONE, 2017)
